Screen size: about 50,000 compounds; about 800 (1.6%) showed an effect of 50% or more. Some of the results follow.

From PubChem BioAssay AID1240 (Sanford-Burnham Center for Chemical Genomics, 2008) come the findings set out here.

The test addresses Bcl-2-like protein 10 (Homo sapiens) (UniProt Q9HD36). In words: TR3 peptide-Bcl-B binding displacers, biochemical primary FP assay, phenotype converters (AID 1240).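 Note: 0% = Bcl-B with tracer peptide and DMSO and 100% = tracer peptide lacking Bcl-B.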 To be noted: GST-Bcl-B / FITC-TR3 peptide fluorescence polarization; stronger effect = higher value; compound at 3.75 mg/L. For orientation: Polarisation of emitted light reports the rotation of a fluorescent probe.
UniProt Q9HD36, sequence (Q9HD36 whole entry, looked up): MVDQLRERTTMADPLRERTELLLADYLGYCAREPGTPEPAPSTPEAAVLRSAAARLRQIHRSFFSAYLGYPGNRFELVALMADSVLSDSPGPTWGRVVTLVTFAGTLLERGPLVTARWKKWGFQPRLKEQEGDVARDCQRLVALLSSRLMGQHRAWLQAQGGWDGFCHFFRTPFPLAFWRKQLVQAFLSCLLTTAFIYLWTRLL
For `CCc1cc2c(=O)c(-c3nc4ccccc4[nH]3)coc2c(CN(CC)CC)c1O`, the displacement is -12%.

For `O=C(Nc1cc([N+](=O)[O-])ccc1Cl)c1cc(-c2cccs2)nc2ccccc12`, the displacement is 7.8%.

For `COc1ccc(COC(=O)C2=C(C)NC3=C(C(=O)CCC3)C2c2cccc3ccccc23)cc1` (stereo not drawn), the displacement turned out to be 10.9%.

In the case of `Cc1ccc(NC(=O)C(=O)NCCN2CCN(C(=O)c3ccco3)CC2)cc1`, the displacement was 7.1%.

For `Cc1noc(NS(=O)(=O)c2ccc(NC(=O)CCCOc3ccc(Cl)cc3Cl)cc2)c1C`, the displacement is -6.3%.

With `Cc1ccccc1N1C(=O)C(O)C(O)C1=O` (stereo not drawn), the displacement came out at 21.1%.

Turning to `CCCN(CCC)CCCNC(=O)/C=N\O`, the displacement is -3.4%.

On to `Cn1c(=O)[nH]c(=O)c2c1nc1n2CC(COc2ccccc2)O1` (stereo not drawn), for which the displacement was -3.5%.

`C=CCOc1ccc2c(c1)C(=NO)c1cc(OCC=C)ccc1-2`: the displacement turned out to be 10.3%.

Take `COc1cc(NC(=O)c2ccc(Cl)cc2Cl)ccc1NC(=O)c1ccco1`: the displacement turned out to be 8.5%.

With `CCc1ccc(N2C(=O)NC(=O)/C(=C\c3ccc(OCC(=O)O)c(Br)c3)C2=O)cc1`, the displacement is -16.2%.

Consider `COc1ccc(N(CC(=O)NCCc2ccccc2)S(C)(=O)=O)cc1Cl`, for which the displacement was -4.3%.

On to `Cc1cccc(NC(=O)Nc2c(C)n(C)n(-c3ccccc3)c2=O)c1`, for which the displacement was -6.6%.

On to `O=C(c1nn2c(c1Br)NC(c1cccs1)CC2C(F)(F)F)N1CCOCC1` (stereo not drawn), for which the displacement came to 6.2%.

Turning to `Cc1ccc(-n2nc3cc(C)c(NC(=O)c4ccccc4Br)cc3n2)cc1`, the displacement is -10.4%.

As for `Cc1cccc(C(=O)NNC(=O)c2ccc(-c3ccccc3)cc2)c1`, the displacement amounted to 9.4%.

For the molecule `CCOC(=O)c1ccccc1NC(=O)C1COc2ccccc2O1` (stereo not drawn), the displacement was -10.1%.

For the molecule `COc1cc(/C=C2/SC(=S)NC2=O)ccc1OC(=O)c1ccc([N+](=O)[O-])cc1`, the displacement worked out at 12.1%.

In the case of `COc1ccc(N2C(=O)NC(=O)/C(=C/c3ccc(-c4ccc([N+](=O)[O-])cc4C)o3)C2=O)cc1`, the displacement worked out at 13.6%.

With `O=C(NCCc1ccccc1)c1ccc(C#Cc2ccccc2)cc1`, the displacement is -8.7%.

For the molecule `O=C(Nc1cc(Cl)cc(Cl)c1)c1cc(I)ccc1Cl`, the displacement is 2.3%.

On to `O=c1cc(-c2ccc([N+](=O)[O-])cc2)nc2cc(-c3ccc(F)cc3)[nH]n12`, for which the displacement turned out to be 7.5%.

Regarding `Cc1[nH]c2ccccc2c1/C=C/c1nc2ccccc2c(=O)n1-c1cccc([N+](=O)[O-])c1`, the displacement came to 1.9%.

On to `CC1=C(C(=O)OCc2ccccc2)C(c2ccc(C(F)(F)F)cc2)C2=C(CCCC2=O)N1` (stereo not drawn), for which the displacement is -5.3%.

As for `COc1ccc(C2CC(=O)C3=C(C2)Nc2ccccc2NC3c2ccc(NC(C)=O)cc2)cc1` (stereo not drawn), the displacement is 6.8%.

Regarding `O=C1CC(N2CCN(c3ccccc3Cl)CC2)C(=O)N1c1cccc(Cl)c1` (stereo not drawn), the displacement is 14.4%.

`COc1ccc(/C=C/C(=O)Nc2ccc(OC(F)(F)F)cc2)cc1`: the displacement turned out to be 2.6%.

For `CC(=O)c1cccc(NC(=O)CC2S\C(=N/N=C/C=C/c3ccccc3)NC2=O)c1` (stereo not drawn), the displacement was found to be 0.3%.
